# In the supplement of paper PMC8728848:
# The list shows a part of the results.
# Experiments:
# Assay in all cases: glycan array binding signal (z-score within array); higher = stronger binding
# Settings in all cases: glycan notation: IUPAC condensed, linker removed
# [1] = biological target: GlcNAc(b1-3)Gal(b1-4)Glc
# Outline: (§1)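 The binding signal is a Z-score computed within each array and averaged over linkers. Arrays of the same protein sequence at different concentrations or buffers were also averaged together. Data originate from 3228 arrays in the Consortium for Functional Glycomics database, kept only where the protein sequence was available.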
# [2] = biological target: GlcNAc(b1-3)Gal(b1-4)GlcNAc
# Outline: as §1
# [3] = biological target: GlcNAc(b1-3)Gal(b1-4)GlcNAc(b1-2)Man(a1-3)[GlcNAc(b1-3)Gal(b1-4)GlcNAc(b1-2)Man(a1-6)]Man(b1-4)GlcNAc(b1-4)GlcNAc
# Outline: as §1
# [4] = biological target: GlcNAc(b1-3)Gal(b1-4)GlcNAc(b1-2)Man(a1-3)[GlcNAc(b1-3)Gal(b1-4)GlcNAc(b1-2)Man(a1-6)]Man(b1-4)GlcNAc(b1-4)[Fuc(a1-6)]GlcNAc
# Outline: as §1
# [5] = biological target: GlcNAc(b1-3)Gal(b1-4)GlcNAc(b1-2)[GlcNAc(b1-3)Gal(b1-4)GlcNAc(b1-6)]Man(a1-6)[GlcNAc(b1-3)Gal(b1-4)GlcNAc(b1-2)Man(a1-3)]Man(b1-4)GlcNAc(b1-4)GlcNAc
# Outline: as §1
# [6] = biological target: GlcNAc(b1-3)Gal(b1-4)GlcNAc(b1-3)Gal(b1-4)GlcNAc
# Outline: as §1
# [7] = biological target: GlcNAc(b1-3)Gal(b1-4)GlcNAc(b1-3)Gal(b1-4)GlcNAc(b1-2)Man(a1-3)[GlcNAc(b1-3)Gal(b1-4)GlcNAc(b1-3)Gal(b1-4)GlcNAc(b1-2)Man(a1-6)]Man(b1-4)GlcNAc(b1-4)GlcNAc
# Outline: as §1
# [8] = biological target: GlcNAc(b1-3)Gal(b1-4)GlcNAc(b1-3)Gal(b1-4)GlcNAc(b1-2)Man(a1-3)[GlcNAc(b1-3)Gal(b1-4)GlcNAc(b1-3)Gal(b1-4)GlcNAc(b1-2)Man(a1-6)]Man(b1-4)GlcNAc(b1-4)[Fuc(a1-6)]GlcNAc
# Outline: as §1
# [9] = biological target: GlcNAc(b1-3)Gal(b1-4)GlcNAc(b1-3)Gal(b1-4)GlcNAc(b1-2)[GlcNAc(b1-3)Gal(b1-4)GlcNAc(b1-3)Gal(b1-4)GlcNAc(b1-6)]Man(a1-6)[GlcNAc(b1-3)Gal(b1-4)GlcNAc(b1-3)Gal(b1-4)GlcNAc(b1-2)Man(a1-3)]Man(b1-4)GlcNAc(b1-4)[Fuc(a1-6)]GlcNAc
# Outline: as §1
# [10] = biological target: GlcNAc(b1-3)Gal(b1-4)GlcNAc(b1-3)Gal(b1-4)GlcNAc(b1-3)Gal(b1-4)GlcNAc(b1-2)Man(a1-3)[GlcNAc(b1-3)Gal(b1-4)GlcNAc(b1-3)Gal(b1-4)GlcNAc(b1-3)Gal(b1-4)GlcNAc(b1-2)Man(a1-6)]Man(b1-4)GlcNAc(b1-4)GlcNAc
# Outline: as §1
# [11] = biological target: GlcNAc(b1-3)Gal(b1-4)GlcNAc(b1-3)Gal(b1-4)GlcNAc(b1-3)Gal(b1-4)GlcNAc(b1-2)Man(a1-3)[GlcNAc(b1-3)Gal(b1-4)GlcNAc(b1-3)Gal(b1-4)GlcNAc(b1-3)Gal(b1-4)GlcNAc(b1-2)Man(a1-6)]Man(b1-4)GlcNAc(b1-4)[Fuc(a1-6)]GlcNAc
# Outline: as §1
# [12] = biological target: GlcNAc(b1-3)Gal(b1-4)GlcNAc(b1-3)Gal(b1-4)GlcNAc(b1-3)Gal(b1-4)GlcNAc(b1-2)[GlcNAc(b1-3)Gal(b1-4)GlcNAc(b1-3)Gal(b1-4)GlcNAc(b1-3)Gal(b1-4)GlcNAc(b1-6)]Man(a1-6)[GlcNAc(b1-3)Gal(b1-4)GlcNAc(b1-3)Gal(b1-4)GlcNAc(b1-3)Gal(b1-4)GlcNAc(b1-2)Man(a1-3)]Man(b1-4)GlcNAc(b1-4)[Fuc(a1-6)]GlcNAc
# Outline: as §1
# [13] = biological target: GlcNAc(b1-3)Gal(b1-4)GlcNAc(b1-3)Gal(b1-4)GlcNAc(b1-3)Gal(b1-4)GlcNAc(b1-3)Gal(b1-4)GlcNAc(b1-2)Man(a1-3)[GlcNAc(b1-3)Gal(b1-4)GlcNAc(b1-3)Gal(b1-4)GlcNAc(b1-3)Gal(b1-4)GlcNAc(b1-3)Gal(b1-4)GlcNAc(b1-2)Man(a1-6)]Man(b1-4)GlcNAc(b1-4)GlcNAc
# Outline: as §1
# [14] = biological target: GlcNAc(b1-3)Gal(b1-4)GlcNAc(b1-3)Gal(b1-4)GlcNAc(b1-3)Gal(b1-4)GlcNAc(b1-3)Gal(b1-4)GlcNAc(b1-2)Man(a1-3)[GlcNAc(b1-3)Gal(b1-4)GlcNAc(b1-3)Gal(b1-4)GlcNAc(b1-3)Gal(b1-4)GlcNAc(b1-3)Gal(b1-4)GlcNAc(b1-2)Man(a1-6)]Man(b1-4)GlcNAc(b1-4)[Fuc(a1-6)]GlcNAc
# Outline: as §1
# [15] = biological target: GlcNAc(b1-3)Gal(b1-4)GlcNAc(b1-3)Gal(b1-4)GlcNAc(b1-3)Gal(b1-4)GlcNAc(b1-3)Gal(b1-4)GlcNAc(b1-2)[GlcNAc(b1-3)Gal(b1-4)GlcNAc(b1-3)Gal(b1-4)GlcNAc(b1-3)Gal(b1-4)GlcNAc(b1-3)Gal(b1-4)GlcNAc(b1-6)]Man(a1-6)[GlcNAc(b1-3)Gal(b1-4)GlcNAc(b1-3)Gal(b1-4)GlcNAc(b1-3)Gal(b1-4)GlcNAc(b1-3)Gal(b1-4)GlcNAc(b1-2)Man(a1-3)]Man(b1-4)GlcNAc(b1-4)[Fuc(a1-6)]GlcNAc
# Outline: as §1
# [16] = biological target: GlcNAc(b1-3)Gal(b1-4)GlcNAc(b1-3)Gal(b1-4)GlcNAc(b1-3)GalNAc
# Outline: as §1
# [17] = biological target: GlcNAc(b1-3)Gal(b1-4)GlcNAc(b1-3)GalNAc
# Outline: as §1
# [18] = biological target: GlcNAc(b1-3)Gal(b1-4)GlcNAc(b1-3)[GlcNAc(b1-3)Gal(b1-4)GlcNAc(b1-3)]GalNAc
# Outline: as §1
# [19] = biological target: GlcNAc(b1-3)Gal(b1-4)GlcNAc(b1-6)[Gal(b1-3)]GalNAc
# Outline: as §1
# [20] = biological target: GlcNAc(b1-3)Gal(b1-4)GlcNAc(b1-6)[GlcNAc(b1-3)Gal(b1-3)]GalNAc
# Outline: as §1
# [21] = biological target: GlcNAc(b1-3)Gal(b1-4)GlcNAc(b1-6)[GlcNAc(b1-3)]Gal(b1-4)GlcNAc
# Outline: as §1
# [22] = biological target: GlcNAc(b1-3)GalNAc
# Outline: as §1
# [23] = biological target: GlcNAc(b1-3)Man
# Outline: as §1
# [24] = biological target: GlcNAc(b1-3)[GlcNAc(b1-4)][GlcNAc(b1-6)]GlcNAc
# Outline: as §1
# [25] = biological target: GlcNAc(b1-3)[GlcNAc(b1-6)]Gal(b1-4)GlcNAc
# Outline: as §1
# [26] = biological target: GlcNAc(b1-3)[GlcNAc(b1-6)]GalNAc
# Outline: as §1
# [27] = biological target: GlcNAc(b1-4)Gal(b1-4)GlcNAc
# Outline: as §1
# [28] = biological target: GlcNAc(b1-4)GlcNAc
# Outline: as §1
# [29] = biological target: GlcNAc(b1-4)GlcNAc(b1-4)GlcNAc
# Outline: as §1
# [30] = biological target: GlcNAc(b1-4)GlcNAc(b1-4)GlcNAc(b1-4)GlcNAc(b1-4)GlcNAc
# Outline: as §1
# [31] = biological target: GlcNAc(b1-4)GlcNAc(b1-4)GlcNAc(b1-4)GlcNAc(b1-4)GlcNAc(b1-4)GlcNAc
# Outline: as §1
# [32] = biological target: GlcNAc(b1-4)[GlcNAc(b1-6)]GalNAc
# Outline: as §1
# [33] = biological target: GlcNAc(b1-6)Gal(b1-4)GlcNAc
# Outline: as §1
# [34] = biological target: GlcNAc(b1-6)GalNAc
# Outline: as §1
# [35] = biological target: GlcNAc6S(b1-3)Gal(b1-4)GlcNAc
# Outline: as §1
# [36] = biological target: Kdn(a2-3)Gal(b1-3)GalNAc
# Outline: as §1
# [37] = biological target: Kdn(a2-3)Gal(b1-3)GlcNAc
# Outline: as §1
binder,measurement,setting,value
diCBM40 CPF071 (Clostridium perfringens) (protein) MAHHHHHHVGTGSNDDDDKSPDPMLSSLGEYKDINLESSNASNITYDLEKYKNLDEGTIVVRFNSKDSKIQSLLGISNSKTKNGYFNFYVTNSRVGFELRNQKNEGNTQNGTENLVHMYKDVALNDGDNTVALKIEKNKGYKLFLNGKMIKEVKDTNTKFLNNIENLDSAFIGKTNRYGQSNEYNFKGNIGFMNIYNEPLGDDYLLSKTGETKALNGSELGSGSGLSSLGEYKDINLESSNASNITYDLEKYKNLDEGTIVVRFNSKDSKIQSLLGISNSKTKNGYFNFYVTNSRVGFELRNQKNEGNTQNGTENLVHMYKDVALNDGDNTVALKIEKNKGYKLFLNGKMIKEVKDTNTKFLNNIENLDSAFIGKTNRYGQSNEYNFKGNIGFMNIYNEPLGDDYLLSKTGETK,glycan array binding signal (z-score),[1],-0.116
same,glycan array binding signal (z-score),[2],-0.281
same,glycan array binding signal (z-score),[3],-0.242
same,glycan array binding signal (z-score),[4],-0.284
same,glycan array binding signal (z-score),[5],0.062
same,glycan array binding signal (z-score),[6],-0.337
same,glycan array binding signal (z-score),[7],-0.325
same,glycan array binding signal (z-score),[8],-0.186
same,glycan array binding signal (z-score),[9],-0.055
same,glycan array binding signal (z-score),[10],0.045
same,glycan array binding signal (z-score),[11],-0.187
same,glycan array binding signal (z-score),[12],0.036
same,glycan array binding signal (z-score),[13],-0.157
same,glycan array binding signal (z-score),[14],-0.206
same,glycan array binding signal (z-score),[15],-0.23
same,glycan array binding signal (z-score),[16],-0.185
same,glycan array binding signal (z-score),[17],-0.263
same,glycan array binding signal (z-score),[18],-0.251
same,glycan array binding signal (z-score),[19],-0.254
same,glycan array binding signal (z-score),[20],-0.315
same,glycan array binding signal (z-score),[21],-0.256
same,glycan array binding signal (z-score),[22],-0.275
same,glycan array binding signal (z-score),[23],-0.296
same,glycan array binding signal (z-score),[24],-0.235
same,glycan array binding signal (z-score),[25],-0.212
same,glycan array binding signal (z-score),[26],-0.226
same,glycan array binding signal (z-score),[27],-0.297
same,glycan array binding signal (z-score),[28],1.48
same,glycan array binding signal (z-score),[29],-0.226
same,glycan array binding signal (z-score),[30],-0.223
same,glycan array binding signal (z-score),[31],-0.321
same,glycan array binding signal (z-score),[32],-0.37
same,glycan array binding signal (z-score),[33],-0.294
same,glycan array binding signal (z-score),[34],-0.279
same,glycan array binding signal (z-score),[35],-0.328
same,glycan array binding signal (z-score),[36],-0.262
same,glycan array binding signal (z-score),[37],-0.291
